PubChem BioAssay AID1466 (National Center for Advancing Translational Sciences (NCATS), 2008)
Out of some 200,000 compounds screened, about 10 (0.005%) were called active. Inconclusive means that the source gave no clear call. Such entries were picked first, then a sample of the others. Calls follow the shape of the dose curve; as a rule, active = well fitted inhibition curve with a large enough effect; inconclusive = small, poorly fitted or top-dose-only effect, or effect the other way, or another doubt; inactive = no such curve, though single readings can be large or run the other way. Potencies of inconclusive entries are left out as doubtful fits.

Molecular target: Lysosomal alpha-glucosidase (Homo sapiens) (UniProt P10253)
Test: qHTS Assay for Inhibitors of Human alpha-Glucosidase as a Potential Chaperone Treatment of Pompe Disease;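 as to activity change, negative = inhibition: plate controls were uninhibited enzyme wells for no effect and no-enzyme background for full effect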
Conditions: purified human GAA, 4-MU-alpha-glucoside fluorescence; activity change, negative = inhibition: at 76.9 µM (top of the series) unless noted
Method in brief: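 Activity normalized between no-enzyme (basal) and enzyme-only wells. Conditions: 4 nM human enzyme, 400 uM fluorogenic substrate, citrate/phosphate pH 5.0 with Tween-20, 20 min room temperature, compounds up to 77 uM.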
Potency is read from the fitted curve at half-maximal effect; tags tell the direction and shape of the fitted curve.

Structure (SMILES) | Potency | activity change, negative = inhibition
O=C1S/C(=C\c2ccc(N3CCOCC3)o2)C(=O)N1Cc1ccc(F)cc1 | inactive | 
O=C(NCc1cn2ccccc2n1)c1ccc2c(c1)OCO2 | inconclusive [inhibitor, single point] | 
Cc1ccc(/C=C\c2nccc3c2[nH]c2ccccc23)cc1 | inconclusive [activator, full curve] | 
Cc1c(C(=O)OCC(=O)c2ccc3c(c2)OCCO3)oc2ccccc12 |  | inconclusive: -15.3% [inhibitor]
Cc1cccc(OCc2nnc(SCC(=O)O)n2Cc2ccccc2)c1 | inconclusive [inhibitor, full curve] | 
CCOC(=O)C(C)CC(C)C(=O)N1CCOCCOCCN(C(=O)C(C)CC(C)C(=O)OCC)CCOCC1 (stereo not drawn) | inconclusive [inhibitor, single point] | 
Cc1ccc(-c2nnn(CC(=O)N(c3ccccc3F)C(C(=O)NCC3CCCO3)c3c[nH]c4ccccc34)n2)cc1 (stereo not drawn) | inconclusive [inhibitor, single point] | 
CCCN(CCC)CCCNC(=O)c1cc2cc3ccc(OC)cc3nc2o1 | inconclusive [activator, partial curve] | 
Cc1[nH]n(-c2ccccc2)c(=O)c1N=Nc1ccc2c(c1)OCCO2 | inconclusive [inhibitor, partial curve] | 
Cc1nc2ccccc2n1CC(=O)NC(C)C1CC2CCC1C2 (stereo not drawn) | inconclusive [inhibitor, partial curve, poor fit] | 
Oc1ccc(Nc2nc(NCC3CCCO3)c3ccccc3n2)cc1 (stereo not drawn) | inactive | 
CC1(C)CC(=O)C2=C(C1)Nc1ncnn1C2c1cccs1 (stereo not drawn) | inconclusive [activator, partial curve] | 
Cc1ccc(-c2nnn(CC(=O)N(Cc3cccs3)C(C(=O)NC(C)(C)C)c3ccco3)n2)o1 (stereo not drawn) | inconclusive [inhibitor, single point] | 
Cc1nn(Cc2ccccc2)c(C)c1NC(=O)c1noc2c1CCc1ccccc1-2 | inconclusive [inhibitor, single point] | 
Fc1ccc(Nc2nc(-c3ccncc3)cs2)cc1 | inactive | 
COc1ccccc1NC(=O)C[n+]1ccccc1 |  | inconclusive: 16.9% [activator]
O=C1OCC(CO)(CO)N=C1NNc1ccc(Cl)c(Cl)c1 | inactive | 
Nc1ccccc1-c1nnc(-c2ccc(-c3ccccc3)cc2)o1 | inconclusive [activator, partial curve] | 
O=C1C2C(c3ccccc3)=NN(c3ccccc3)C2C(=O)N1c1ccccc1 (stereo not drawn) | inconclusive [activator, partial curve] | 
CCOC(=O)c1cc2c(ccn2-c2ccc(F)cc2)n1CC(=O)N(CC)CC | inconclusive [inhibitor, full curve] | 
CC(C)(Cl)C1Cc2cc3ccc(=O)oc3cc2O1 (stereo not drawn) | inconclusive [activator, partial curve, poor fit] | 
COc1cc(CNCc2ccccn2)ccc1OCc1ccc(Cl)cc1Cl | inconclusive [inhibitor, single point] | 

Structure (SMILES) | Potency | activity change, negative = inhibition
CCC(=O)OCCNc1nc(-c2ccccc2)nc2ccccc12 | inactive | 
COc1ccc(C(=O)NNC(=O)CSc2nnc(COc3ccc4ccccc4c3)n2C)cc1 | inconclusive [inhibitor, full curve] | 
CC(C)(C)c1ccc(C(=O)NC(=S)NCc2cccnc2)cc1 | inconclusive [inhibitor, partial curve] | 
O=C(NC1CCCCC1)Nn1c(-c2ccccc2)nc2ccccc2c1=O | inconclusive [inhibitor, partial curve, poor fit] | 
Cc1cc(=O)oc2cc(OC(=O)CCN3C(=O)c4ccccc4C3=O)ccc12 | inconclusive [activator, partial curve] | 
O=C(CSc1ccccn1)Nc1nc2ccc(Br)cc2s1 | inconclusive [inhibitor, single point] | 
CN(C)CCCNC(=O)/C(=C\c1ccc(-c2cccc([N+](=O)[O-])c2)o1)NC(=O)c1ccccc1 | inconclusive [inhibitor, single point] | 
O=C(NCCCN1CCOCC1)C1COc2ccccc2O1 (stereo not drawn) | inconclusive [inhibitor, single point] | 
O=C(Cc1cccs1)N1CCN(c2cccc(Cl)c2)CC1 |  | inconclusive: 15.2% [activator]
O=C(NNC(=S)NC1CCCCC1)c1cccs1 | inactive | 
Cc1nc(NCCCO)c(C#N)c2c1COC(C)(C)C2 | inconclusive [activator, partial curve] | 
O=C(O)c1c[nH]c2ccc(S(=O)(=O)N3CCOCC3)cc12 | inconclusive [inhibitor, partial curve] | 
O=C(c1cc(-c2ccncc2)nc2ccccc12)N1CCN(c2ccccn2)CC1 |  | inconclusive: -18.3% [inhibitor]
Nc1ccc(S(=O)(=O)NNC(=O)C(=O)NNc2ccccn2)cc1 | inactive | 
CCc1c(C)c2cc(Cl)c(O)c(CN(CC)CC)c2oc1=O | inconclusive [activator, partial curve] | 
O=C(CSc1nnc(-c2ccccc2)o1)Nc1ccccc1F | inconclusive [inhibitor, single point] | 
COc1ccc(NCN2C(=O)C3C4C=CC(C4)C3C2=O)cc1 (stereo not drawn) | inactive | 
N#Cc1c(N2CCN(C(=O)c3ccccc3Cl)CC2)nc(-c2ccccc2)c2c1CCCC2 | inconclusive [activator, partial curve, poor fit] | 
Cc1ccc(Nc2nc(N)nc(CSc3nccn3C)n2)cc1 | inconclusive [activator, partial curve] | 
Cc1ccc(S(=O)(=O)N2CCN(CC(=O)Nc3ccc(N4CCOCC4)cc3)CC2)cc1C | inconclusive [inhibitor, partial curve, poor fit] | 
CCOc1ccccc1NC(=O)CSC1=C(C#N)C(c2ccco2)C(C(=O)Nc2nc3ccccc3s2)=C(C)N1 (stereo not drawn) | inconclusive [activator, partial curve] | 
